Measurements: publication PMC6212790
The other results are listed elsewhere or left out. At the low end of the ranking the order means little.

The sequences below were run against T1, GST-Rok-C97-191 (UniProt O34857) (assay: protein binding microarray). Conditions: Rok is a gene silencer of Bacillus subtilis; high values mean tight binding; most listed sequences are background and not binding sites; double strand, one strand shown.
T1 sequence: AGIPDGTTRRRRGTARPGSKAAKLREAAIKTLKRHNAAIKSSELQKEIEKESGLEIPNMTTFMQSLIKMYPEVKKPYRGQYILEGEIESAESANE
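Note: rank score from −0.5 (least bound) to 0.5 (best bound).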

Row | Sequence | binding signal
1 | TAAGATGA | 0.0492 E-score
2 | ACGGTCTC | -0.222 E-score
3 | TCTCAACA | 0.0624 E-score
4 | CGATATAA | 0.312 E-score
5 | GCTGCAGA | -0.121 E-score
6 | GAACAGTA | 0.179 E-score
7 | ACTGGACA | 0.0154 E-score
8 | GAACTGGA | -0.0882 E-score
9 | CGTCTACA | 0.0729 E-score
10 | GTTGGGCA | -0.118 E-score
11 | GAGGGGGA | -0.339 E-score
12 | CATTGTGA | -0.101 E-score
13 | AACGTAAT | 0.102 E-score
14 | AGTACAAT | 0.269 E-score
15 | CGATTTGA | 0.0523 E-score
16 | AGTGAGCG | -0.163 E-score
17 | ATGATACA | 0.232 E-score
18 | CCCGTCGA | -0.188 E-score
19 | ACAGGCCA | -0.0827 E-score
20 | AGTTCGTA | 0.256 E-score
21 | CTTTTGTC | -0.156 E-score
22 | AAAAGCGT | -0.153 E-score
23 | AGAATTAA | 0.181 E-score
24 | ATGTTCTA | 0.229 E-score
25 | AGACCGAA | -0.134 E-score

Row | Sequence | binding signal
26 | AACTGACT | -0.0777 E-score
27 | GAGTTAAA | 0.136 E-score
28 | AATCGACC | -0.0453 E-score
29 | AGGGTGGC | -0.259 E-score
30 | AAACGAGC | -0.161 E-score
31 | CGTCTTAC | -0.281 E-score
32 | ACCGGGAC | -0.249 E-score
33 | TCTCCGAA | 0.161 E-score
34 | CAGTTATC | 0.161 E-score
35 | ACTACCTG | 0.0951 E-score
36 | CGTGTCAC | -0.0756 E-score
37 | ACGTTTTC | 0.12 E-score
38 | CCTGTAGA | 0.0258 E-score
39 | AGGGTATA | 0.154 E-score
40 | AGGGTGCA | -0.108 E-score
41 | CTTACTTC | 0.0829 E-score
42 | ACTCAGCC | -0.213 E-score
43 | CCTAGACC | -0.246 E-score
44 | AACGATAT | 0.229 E-score
45 | CAACACAG | -0.126 E-score
46 | GTCGGGAA | -0.211 E-score
47 | AGGTTAGG | -0.139 E-score
48 | AGCCGATG | -0.0728 E-score
49 | AAGAATCA | 0.18 E-score
50 | GCGATGGA | -0.00523 E-score

Row | Sequence | binding signal
51 | AACATGGC | -0.24 E-score
52 | CAGGCTGG | -0.202 E-score
53 | CCTGAAAA | -0.02 E-score
54 | AATGAATA | 0.196 E-score
55 | CCGTATCA | 0.00786 E-score
56 | TCTTGTCA | -0.0593 E-score
57 | CAAGATCA | 0.0691 E-score
58 | ACCCGTCA | -0.235 E-score
59 | AGCTGCGC | -0.25 E-score
60 | GTCCCTTA | -0.152 E-score
61 | ATATACAG | 0.317 E-score
62 | CGTCGAGA | -0.052 E-score
63 | CCAGGACC | -0.258 E-score
64 | CTCAGGGA | -0.17 E-score
65 | AAAGACCT | -0.0765 E-score
66 | CTCCACAC | -0.0448 E-score
67 | ATGGGGTA | 0.128 E-score
68 | CAATTCAC | -0.057 E-score
69 | AACTTTAG | -0.0144 E-score
70 | AGATGTAC | 0.241 E-score
71 | GAGTCCCA | 0.00589 E-score
72 | TCGAGCGA | 0.00557 E-score
73 | CGCCCCAC | -0.289 E-score
74 | TATGGAAA | 0.0318 E-score
75 | GCCTATAC | 0.162 E-score

Row | Sequence | binding signal
76 | GTGGGGGA | -0.227 E-score
77 | AGGGTTGA | -0.224 E-score
78 | CCGACCTA | -0.0176 E-score
79 | CTGCATGC | -0.138 E-score
80 | CATTCATC | -0.0118 E-score
81 | GCGGGCGA | -0.374 E-score
82 | ACCGTTCC | -0.0133 E-score
83 | AACCTCTT | -0.0952 E-score
84 | CTAGAATA | 0.241 E-score
85 | AGATCAGA | 0.226 E-score
86 | TGCTACCA | 0.099 E-score
87 | ACGTAATC | -0.0356 E-score
88 | AAAGTTGC | 0.0237 E-score
89 | ATCGGTCC | -0.119 E-score
90 | CGATGTGA | -0.117 E-score
91 | CTTCTGAA | -0.0549 E-score
92 | TGATCCCA | -0.105 E-score
93 | ATCGCTCA | -0.0831 E-score
94 | ACCTAGAA | 0.142 E-score
95 | ACCATGGT | 0.132 E-score
96 | CGCGCGTA | 0.0765 E-score
97 | AACCATGC | -0.113 E-score
98 | CTAGGTGC | 0.0387 E-score
99 | CGATTGTA | 0.144 E-score
100 | AACATATA | 0.208 E-score

Row | Sequence | binding signal
101 | AACTAACG | 0.263 E-score
102 | AATTCGAG | 0.139 E-score
103 | ACCAGAGC | -0.232 E-score
104 | CCTACGAG | -0.0397 E-score
105 | ACCCGGGA | -0.0399 E-score
106 | ACAAATGC | -0.0581 E-score
107 | ATGATTAG | 0.16 E-score
108 | CAATAGAG | 0.143 E-score
109 | ACTTCTTA | 0.266 E-score
110 | AGGGTTTA | 0.0461 E-score
111 | CAATGCAG | -0.0565 E-score
112 | GCACATAC | -0.0559 E-score
113 | TACTTTAA | 0.273 E-score
114 | CCCCGAAG | -0.202 E-score
115 | AGCCGTCA | -0.289 E-score
116 | AATCCCGT | -0.143 E-score
117 | AATTGCCG | 0.182 E-score
118 | CTTTCTGC | -0.0564 E-score
119 | CCGTTACA | 0.111 E-score
120 | CGAACGAC | -0.189 E-score
121 | GGTTACGA | -0.148 E-score
122 | AACGCGAC | -0.0921 E-score
123 | GAAGTTTA | -0.0766 E-score
124 | CACGTCGG | -0.235 E-score
125 | AATCAACA | 0.109 E-score

Row | Sequence | binding signal
126 | CAGGAGGG | -0.27 E-score
127 | GAGCTACA | 0.151 E-score
128 | GGTTGACA | -0.0966 E-score
129 | CCATACTC | -0.0208 E-score
130 | ACGATGCT | 0.0784 E-score
131 | CTATTCTC | -0.0995 E-score
132 | CCATGGCA | -0.0622 E-score
133 | CGAATTCA | -0.0458 E-score
134 | CCTGGAGC | 0.0729 E-score
135 | AGCCACCA | 0.0177 E-score
136 | CCTAGCCC | -0.201 E-score
137 | TGTAGTAA | 0.286 E-score
138 | CCCACCTA | -0.0708 E-score
139 | ATCACTTG | 0.141 E-score
140 | GTTTGCGA | 0.0625 E-score
141 | TAGGAGAA | 0.261 E-score
142 | AGCTTTCG | -0.16 E-score
143 | CCGCGCAG | -0.186 E-score
144 | AATAGTAT | 0.332 E-score
145 | ACGGATCT | -0.0876 E-score
146 | ACTTTTCG | 0.229 E-score
147 | CAGGGGAG | -0.324 E-score
148 | ACGAGTGC | -0.00382 E-score
149 | AGGACACG | -0.182 E-score
150 | GCGTGCCA | -0.298 E-score

Row | Sequence | binding signal
151 | AACTCTGC | 0.0553 E-score
152 | GTAAAGAC | 0.0109 E-score
153 | AGAGTGTA | 0.0487 E-score
154 | GGTGTTAA | -0.0608 E-score
155 | ACCCGGCC | -0.223 E-score
156 | CCCCCGCA | -0.284 E-score
157 | ACGATTAA | -0.0187 E-score
158 | TACGAACA | 0.121 E-score
159 | ATGCCTTC | -0.0914 E-score
160 | CGGGCGGA | -0.117 E-score
161 | CCACCATC | -0.144 E-score
162 | CCCTGGAA | -0.186 E-score
163 | ATGATGCG | 0.117 E-score
164 | CCGAAGCC | -0.193 E-score
165 | CGAACTCA | -0.117 E-score
166 | AGGAGACG | -0.19 E-score
167 | CGCTTCGC | -0.182 E-score
168 | AGCATATA | 0.212 E-score
169 | AATGGGGG | -0.299 E-score
170 | GTCCACGA | -0.173 E-score
171 | CCTCCTTA | -0.0457 E-score
172 | CCAGATTA | -0.119 E-score
173 | TAAGACCA | -0.101 E-score
174 | GCTAGACC | -0.185 E-score
175 | AAGGGAGC | -0.131 E-score

Row | Sequence | binding signal
176 | CGAGACAG | -0.167 E-score
177 | CCTGTTTC | -0.0662 E-score
178 | CGTTATGA | -6.11e-05 E-score
179 | CCACAACG | -0.13 E-score
180 | ATAATAAG | 0.331 E-score
181 | AAACCCGA | -0.0717 E-score
182 | GCAAACCC | -0.0548 E-score
183 | CGGTTCGA | -0.00271 E-score
184 | CTCTTATA | 0.0955 E-score
185 | CAGCCGAA | 0.0509 E-score
186 | ATAAACCG | 0.12 E-score
187 | GCCTGATA | -0.114 E-score
188 | AGGCAAAT | 0.0488 E-score
189 | GCGTAGCC | -0.251 E-score
190 | AGGCTACG | -0.177 E-score
191 | GAACCTAA | -0.00709 E-score
192 | ACGAAGCG | -0.212 E-score
193 | CATCCCGG | -0.209 E-score
194 | CATCCACA | 0.0649 E-score
195 | CACATCAG | -0.0403 E-score
196 | GTGCCGGA | -0.0988 E-score
197 | CGGAGACA | -0.109 E-score
198 | ACTAGACA | 0.112 E-score
199 | ACGTGCAG | -0.0609 E-score
200 | AGACTATC | -0.0291 E-score

Row | Sequence | binding signal
201 | ATAGAGAG | -0.0657 E-score
202 | CTTGCTAA | -0.00851 E-score
203 | CAGGCTCA | -0.178 E-score
204 | ATGGGTGA | -0.194 E-score
205 | GATGGAAA | -0.0063 E-score
206 | AACCCTAG | -0.0348 E-score
207 | AAATGTCC | 0.0232 E-score
208 | GTTTAGAA | 0.0571 E-score
209 | TGTGTGAA | -0.1 E-score
210 | CTTGCAGC | -0.206 E-score
211 | TAGACTGA | -0.0359 E-score
212 | ACGAATGG | -0.107 E-score
213 | ACCCCGTG | -0.134 E-score
214 | CCTCCGAC | -0.306 E-score
215 | CAACGCAC | 0.0033 E-score
216 | AAACCTAT | 0.115 E-score
217 | AGCTGTTA | 0.0363 E-score
218 | AATCGGCT | -0.0903 E-score
219 | AGATTCAA | 0.183 E-score
